Laboratory results taken from the BET-seq Pho4 binding data (Le et al. 2018).
The list shows a part of the results. These are noisy estimates, calculated here from bound and input reads.

These sequences were tested against T1, Pho4 (S. cerevisiae) (UniProt P07270) (assay: relative binding free energy (BET-seq); higher = weaker binding). Details: reference: library average.
T1 sequence: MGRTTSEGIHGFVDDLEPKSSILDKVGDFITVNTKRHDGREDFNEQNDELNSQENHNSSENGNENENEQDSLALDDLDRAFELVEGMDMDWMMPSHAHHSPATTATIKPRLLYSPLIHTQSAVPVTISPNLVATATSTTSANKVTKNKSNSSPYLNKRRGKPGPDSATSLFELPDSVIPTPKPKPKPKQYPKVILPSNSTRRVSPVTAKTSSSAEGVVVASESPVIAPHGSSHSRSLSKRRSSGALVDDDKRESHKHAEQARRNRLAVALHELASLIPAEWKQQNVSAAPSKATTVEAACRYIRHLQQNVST

Relative binding free energy, 0.25 kcal/mol:
GAAATCACGTGTGAGG
AAGAGCACGTGAGGAA

Relative binding free energy, -0.04 kcal/mol:
GTGGGCACGTGTAGCT
CTGGTCACGTGGTTAT
GTGGGCACGTGGGACG
ACGTACACGTGGGAGT
ATTAACACGTGTATGT

Relative binding free energy, -0.11 kcal/mol:
TGACGCACGTGGTGAT
GAGTGCACGTGGCATG
AATGGCACGTGGTGGG
ATTGTCACGTGGTTTA

Relative binding free energy, 0.33 kcal/mol:
AAGTACACGTGAGTAT
GGCTGCACGTGAAAGT

Relative binding free energy, -0.29 kcal/mol:
GCCGCCACGTGGGGGG

Relative binding free energy, 0.32 kcal/mol:
CGTTTCACGTGCAAGG
CGGTTCACGTGTGAGC
TTCTTCACGTGCGGTT

Relative binding free energy, 0.28 kcal/mol:
TTAATCACGTGATAGA
GGCTTCACGTGTAAGT

Relative binding free energy, 0.02 kcal/mol:
GGAGTCACGTGGTCAG
AAAGGCACGTGTAGAG
TCGTGCACGTGTGTCG

Relative binding free energy, -0.06 kcal/mol:
GGCTCCACGTGGGGGG
CGGGTCACGTGGGGGA
CTTGACACGTGGGTAT
ATTCACACGTGTTTGT

Relative binding free energy, 0.05 kcal/mol:
ATTGTCACGTGTTATC
GTGGCCACGTGGTAAT
GCGTGCACGTGGTTAT
TGTGACACGTGTGAAT
AAGTACACGTGGCGTG
TGGGGCACGTGATAGT
TTGTACACGTGGTCGA
CGCATCACGTGTGGTG
ATTCACACGTGGGTTT
GTAGCCACGTGGTGAT

Relative binding free energy, 0.04 kcal/mol:
GGCGGCACGTGTGATA
GGGCCCACGTGTGTGG
TTAATCACGTGTTGCT
CTGTGCACGTGTAGTA
TTGTACACGTGGATTG

Relative binding free energy, 0.2 kcal/mol:
GTGTTCACGTGATCTG
TAAGGCACGTGAGATG
ATATGCACGTGAGATG

Relative binding free energy, 0.23 kcal/mol:
CGTGTCACGTGAGGGC

Relative binding free energy, 0.1 kcal/mol:
TGGTACACGTGTCGAG
GTTGACACGTGTTTCA
TAGTGCACGTGACGTG
GGGCACACGTGCGGGA
CTTGTCACGTGACGTG
ATTTGCACGTGAGCGG
TGTTCCACGTGTTTTC

Relative binding free energy, -0.13 kcal/mol:
AGGAGCACGTGTGGTC
TGATCCACGTGGAGGT
GGAGGCACGTGCAGCG

Relative binding free energy, 0.3 kcal/mol:
GTAGACACGTGAGTAT
GGGCTCACGTGTATAG

Relative binding free energy, 0.12 kcal/mol:
CGCGTCACGTGTGGAT
TGCTGCACGTGATGTA
GGTTGCACGTGTTAAA
TGAGCCACGTGTGGAA
GGAAGCACGTGAGGCG
TTGGTCACGTGTGGAC

Relative binding free energy, -0.01 kcal/mol:
TTGCACACGTGGTGGT
TTCTGCACGTGCTAGT
TGTTGCACGTGGATTA
TTTGGCACGTGTAAGG
GTTAACACGTGTTGTG
TGTGTCACGTGTAGCT
TCGGGCACGTGATCGG
ACGTGCACGTGTGCGT
CGTATCACGTGGTGTA
TTTATCACGTGGGGTA
TGGGGCACGTGCAAAG
TTTTACACGTGGGTGT
GAATACACGTGGGATG

Relative binding free energy, -0.07 kcal/mol:
GGAGGCACGTGCAGTA
TGTAGCACGTGTCTGG
ATTGGCACGTGTGCTT

Relative binding free energy, -0.2 kcal/mol:
GTATCCACGTGGGGTT

Relative binding free energy, -0.09 kcal/mol:
GGGAACACGTGGGAGA
TGATCCACGTGGGTTA
TGCAGCACGTGTTGAT
TTGGCCACGTGGTATG
TTTCGCACGTGGTAAT
ATTGGCACGTGACATT
TAAAACACGTGGGGTA

Relative binding free energy, -0.03 kcal/mol:
GGTAGCACGTGTTTAG
GGGGCCACGTGAGCGT
AGAGGCACGTGTGGCG
GAATGCACGTGGTTGA
TTTTGCACGTGGGGCT
TGAGGCACGTGTATTT

Relative binding free energy, 0.29 kcal/mol:
TCATTCACGTGTTTGA
GTGTTCACGTGGTATC

Relative binding free energy, 0.07 kcal/mol:
CTTGACACGTGTGGGA
ATGGTCACGTGCGTGA
ATGGACACGTGTTAAT
TATGACACGTGTTAGC
GGACTCACGTGGGTAT
GTCTGCACGTGGACGG
GCGGGCACGTGTATAT
AAGGGCACGTGATTTG

Relative binding free energy, 0.06 kcal/mol:
TGTGTCACGTGGTGTG
GGTTGCACGTGGTGGA
GTGTGCACGTGAGCTA
ATAGTCACGTGTTTTG
CGGGGCACGTGATAGA
TGTTCCACGTGGCAGG

Relative binding free energy, -0.19 kcal/mol:
GGAAGCACGTGCGGGA

Relative binding free energy, 0.08 kcal/mol:
TGTTACACGTGGATGA
ATGGACACGTGTTTGA
TGGGTCACGTGCACTG
TTGTCCACGTGGTTAG
TTTCACACGTGGTGAG

Relative binding free energy, -0.1 kcal/mol:
AGGGGCACGTGACATT
ATGGGCACGTGTCGTG

Relative binding free energy, 0.18 kcal/mol:
TTGTGCACGTGCTACG
TTGTGCACGTGAAAAG
ATCGACACGTGAGGTT
GAATTCACGTGTGGCG
TTGATCACGTGGATCT
AGTCTCACGTGGATGT
AGTTTCACGTGGAGAT

Relative binding free energy, -0.12 kcal/mol:
AAATGCACGTGGGGCA
GAAGGCACGTGGGTGT
AGTGACACGTGGCAGG
GTGTACACGTGGGCCG
TTGACCACGTGGTGGT

Relative binding free energy, 0.22 kcal/mol:
GGGGTCACGTGCGAGG
AAAAACACGTGATGGT

Relative binding free energy, 0.24 kcal/mol:
GGGGTCACGTGAGAGC
GCGGTCACGTGGTTTG
GGTATCACGTGTTTCT
GTTTGCACGTGAACGT
GGTATCACGTGCAGTG

Relative binding free energy, 0.49 kcal/mol:
AAGTTCACGTGTTGAC

Relative binding free energy, 0.21 kcal/mol:
TATATCACGTGGAGTC
GCTGTCACGTGGTCGT
AAATGCACGTGAGTGC
ATCGTCACGTGAGCGG
GTGGACACGTGATTAT
CGCGTCACGTGTTTGA

Relative binding free energy, 0.13 kcal/mol:
TGCGTCACGTGCGTTG
ATTATCACGTGGGACG

Relative binding free energy, 0.14 kcal/mol:
TTTTGCACGTGTAAGG
TGTTACACGTGATGCA
AGCGTCACGTGTAATG

Relative binding free energy, 0.11 kcal/mol:
AGGTGCACGTGATGGA
TGTAGCACGTGATGTC
GAAGACACGTGTGTGT
AAGTGCACGTGTGTAC
TTAAGCACGTGAAGTG
CTTTACACGTGGATTT

Relative binding free energy, 0.35 kcal/mol:
AGAGCCACGTGAGATG

Relative binding free energy, -0.34 kcal/mol:
CGGACCACGTGGGGGG

Relative binding free energy, 0.01 kcal/mol:
GGGGGCACGTGATGAT
ATTGTCACGTGCTTGA

Relative binding free energy, 0.16 kcal/mol:
GTCATCACGTGTGGGC
GGCAGCACGTGAGGGA
AGTATCACGTGTGAGT

Relative binding free energy, 0.46 kcal/mol:
TTGTTCACGTGGAAGT

Relative binding free energy, -0.14 kcal/mol:
TTGTGCACGTGGCGGT
AGTGGCACGTGGTGAC
TTGCGCACGTGGTATT
GGTGGCACGTGGTCTG

Relative binding free energy, 0.5 kcal/mol:
GATTTCACGTGAATAG

Relative binding free energy, -0.17 kcal/mol:
GTAAGCACGTGGGCGG
GTACGCACGTGCGGGG
CGGGGCACGTGCTGGC

Relative binding free energy, 0.17 kcal/mol:
TGATTCACGTGTATTT
TATATCACGTGTAATA
AGAGTCACGTGCTTTA
CGTGGCACGTGAGTTT

Relative binding free energy, 0.26 kcal/mol:
CGAGTCACGTGAGGGT
TTATTCACGTGGAATC
GTAATCACGTGATGCG
GGGTTCACGTGCATGA

Relative binding free energy, -0.26 kcal/mol:
GTGGGCACGTGCTCGG
TCTCGCACGTGGGGGA

Relative binding free energy, -0.02 kcal/mol:
AAGGGCACGTGTTACA
TATCGCACGTGGATTG
AGGGACACGTGGCATT
GTAGGCACGTGTTTGC
ATAAGCACGTGGAAGT
TGTTCCACGTGGTGGC

Relative binding free energy, -0.08 kcal/mol:
TAGCACACGTGGGTTG
CGGTACACGTGGGGGG
AGTAACACGTGCGTGG
AATAGCACGTGGCATG

Relative binding free energy, 0.03 kcal/mol:
CAAGGCACGTGTATTT
TGGTACACGTGGCGTG
TGTTGCACGTGTCGTT
AAGGACACGTGGATGG
GGCTGCACGTGCAGGG
TTTAGCACGTGGAATG

Relative binding free energy, 0.34 kcal/mol:
GGGTTCACGTGGCGCA
AGCTTCACGTGTTAAG
TCTTTCACGTGACGGG
AGATTCACGTGTATGG

Relative binding free energy, -0.22 kcal/mol:
TTAGGCACGTGGGTAT

Relative binding free energy, -0.05 kcal/mol:
TGTGACACGTGTGCGT
TTCTACACGTGGAGGG
TAAAACACGTGGTGGT
TGAGTCACGTGGGCAT
TTATGCACGTGTACGT

Relative binding free energy, -0.16 kcal/mol:
TATGCCACGTGGTCGT
TTTTGCACGTGCTAGA
TAGGGCACGTGTTCGC
CACGTCACGTGGGTGT

Relative binding free energy, 0.15 kcal/mol:
GCGTGCACGTGGTGAA
AGAATCACGTGTTAAT

Relative binding free energy, 0.09 kcal/mol:
TTAGGCACGTGAGGTG
GGGTGCACGTGTAGAA
GTGGGCACGTGACTGG
TGTTGCACGTGTTTCG
TGGGACACGTGCCGTA
AGTAACACGTGTGTAG
GGGCGCACGTGAGCTG

Relative binding free energy, 0.19 kcal/mol:
TGGGTCACGTGTTGGG
TTTTGCACGTGTGAAA
GTACTCACGTGTGAGG

Relative binding free energy, -0.18 kcal/mol:
ATGACCACGTGGGGGG

Relative binding free energy, -0.23 kcal/mol:
ATCGGCACGTGGGGCT
AGGGCCACGTGGCGAG

Relative binding free energy, 0 kcal/mol:
CGTAGCACGTGTGAAG
TTGAACACGTGTAGGA
ATTTACACGTGGTGCG
GGGGCCACGTGTGCAG

Relative binding free energy, 0.36 kcal/mol:
TGGATCACGTGTTATG
